Results: PubChem BioAssay AID902 (National Center for Advancing Translational Sciences (NCATS), 2007)
Screen size: about 130,000 compounds; about 1,900 (1.5%) were called active. The shares of active, inactive and inconclusive entries below differ from those in the screen. The call rests on the fitted dose curve; in most records, active means well fitted cell-killing curve with a large enough effect; inconclusive means small, poorly fitted or top-dose-only effect; inactive means no such curve, though single readings can be large or run the other way. Potencies beside an inconclusive call are fits to weak or partial responses and may not hold up.
On the % scale 0 is the no-effect control and ±100 the full control effect; potency means the concentration at half of the fitted maximal effect; tags describe the fitted curve by direction and shape.

Experiment: qHTS Screen for Compounds that Selectively Target Cancer Cells with p53 Mutations: Cytotoxicity of p53ts Cells at the Nonpermissive Temperature; further: nearly all actives have a fitted effect of over 55% in size
Details: H1299-p53A138V viability at 39C, ATP luminescence, 24 h; activity change, negative = cell killing: at 46.1 µM (top of the series)
In the case of `Cc1ccccc1S(=O)(=O)Cc1ccc(C(=O)N2CCN(c3cccc(Cl)c3)CC2)o1`, the Potency is reported as inconclusive: 1 µM [cytotoxic, full curve, poor fit]. In the case of `O=C(Nc1ccc2c(c1)OCO2)c1cccc(Cl)c1`, the Potency is reported as inconclusive: 10 µM [cytotoxic, single point]. With `CCNc1ncc2ncc(=O)n(C3CC3)c2n1` the “activity change, negative = cell killing” value was inactive: -2.27%. With `COc1ccc(Cl)cc1NC(=O)c1cc2c(=O)n3ccccc3nc2s1` the Potency was inconclusive: 12.6 µM [cytotoxic, single point]. In the case of `COc1ccc(Cn2c(CCC(=O)NCc3ccc(Cl)cc3)nc3cccnc32)cc1`, the Potency is reported as inconclusive: 12.6 µM [cytotoxic, partial curve]. In the case of `CN(c1ccccc1)S(=O)(=O)c1ccc(NC(=O)c2nc(S(C)(=O)=O)ncc2Cl)cc1`, the Potency is reported as active: 3.16 µM. With `O=[N+]([O-])c1cc(S(=O)(=O)Nc2ccccc2)ccc1N1CCN(c2ccccc2)CC1` the Potency was inconclusive: 35.5 µM [cytotoxic, single point]. For `CCOC(=O)Cc1csc(NC(=O)CSc2nnc(-c3ccc(C)cc3)o2)n1`, the Potency was active: 7.94 µM. With `Cc1cccc(NC(=O)c2ccc(-c3ccccc3)s2)c1` the Potency was inconclusive: 7.94 µM [cytotoxic, partial curve, poor fit]. With `CCC(Oc1ccccc1)C(=O)Nc1nnc(S(=O)(=O)N(CC)CC)s1` (configuration not stated) the Potency was inconclusive: 1.26 µM [cytotoxic, full curve]. In the case of `CCc1ccc(NC(=O)c2cnn(-c3ccccc3)c2-n2cccc2)cc1`, the Potency is reported as inconclusive: 2.51 µM [cytotoxic, full curve, poor fit]. With `CCc1ccc(NC(=O)c2ccc(-c3ccccc3)s2)cc1` the Potency was inconclusive: 0.0794 µM [cytotoxic, full curve, poor fit]. With `Brc1cccc(-c2nnn3c2nc(NCc2ccc4c(c2)OCO4)c2ccccc23)c1` the Potency was inconclusive: 0.398 µM [cytotoxic, full curve]. In the case of `COC(=O)c1c(NC(=O)c2ccc(S(=O)(=O)N3CCC(C)CC3)cc2)sc2c1CCN(C)C2`, the Potency is reported as inconclusive: 31.6 µM [cytotoxic, single point]. With `Cc1cc(C)c(NC(=O)C2CCN(c3nc4ccccc4n4cccc34)CC2)c(C)c1` the Potency was inconclusive: 31.6 µM [cytotoxic, single point]. In the case of `Cc1cc(C)c(NC(=O)CSc2ncc3c(n2)-c2cc(Cl)ccc2N(C)S3(=O)=O)c(C)c1`, the “activity change, negative = cell killing” value is reported as inactive: -10.8%. For `C=Cc1ccc(Cn2c(C(=O)O)c(CNCc3ccc(F)cc3)c3ccc(C)cc32)cc1`, the Potency was inconclusive: 15.8 µM [cytotoxic, single point]. In the case of `CC(C)(C)c1ccc(/C=C/C(=O)Nc2ccc(S(N)(=O)=O)cc2)cc1`, the Potency is reported as inconclusive: 15.8 µM [cytotoxic, single point]. With `Cc1ccc(CN2CCC(CNC(=O)c3cnn(-c4ccccc4)c3C3CCN(C(=O)OC(C)(C)C)CC3)CC2)cc1` the Potency was inconclusive: 12.6 µM [cytotoxic, partial curve, poor fit]. For `O=C(CS(=O)(=O)Cc1ccccc1)N1CCN(Cc2ccc3c(c2)OCO3)CC1`, the Potency was active: 12.6 µM. In the case of `COc1ccc(NC(=O)c2cc(C(C)=O)n3ccccc23)cc1`, the “activity change, negative = cell killing” value is reported as inactive: -22.9%. In the case of `Cc1ccc2c(c1)C(=O)C(=O)N2Cc1ccc(OCCC(C)C)cc1`, the Potency is reported as inconclusive: 15.8 µM [cytotoxic, single point]. With `N#CC1=C(N)SC(N)=C(C#N)C1c1cccc(Oc2ccccc2)c1` the “activity change, negative = cell killing” value was inactive: 2.82%. For `O=C(CSc1ncc2c(n1)-c1cc(Cl)ccc1N(Cc1ccccc1)S2(=O)=O)Nc1ccc(F)cc1F`, the Potency was inconclusive: 10 µM [cytotoxic, partial curve]. In the case of `O=C(CCSCc1cccc(Cl)c1)NCc1ccccc1Cl`, the Potency is reported as inconclusive: 15.8 µM [cytotoxic, partial curve]. For `CC1CCCN(c2ncnc3c2cnn3-c2ccc(F)cc2)C1` (configuration not stated), the Potency was active: 2 µM. For `CCN(CC)c1cc(C)c2cc(NC(=O)/C=C/c3ccccc3Cl)ccc2n1`, the Potency was inconclusive: 2.51 µM [cytotoxic, partial curve]. In the case of `COc1ccc(OC)c2sc(N3CCN(c4ccccc4)CC3)nc12`, the “activity change, negative = cell killing” value is reported as inactive: -28.1%. With `CC(C)(C)c1ccc(-c2nc(SCCOc3ccc(Cl)cc3)n3[nH]c(=O)cc3n2)cc1` the Potency was inconclusive: 25.1 µM [cytotoxic, single point]. For `COc1ccc(-c2nc(C)c(CCNC(=O)C(=O)Nc3ccccc3F)s2)cc1`, the Potency was inconclusive: 12.6 µM [cytotoxic, partial curve]. For `NCc1ccc(-c2nc3ccccc3o2)cc1`, the Potency was inconclusive: 3.16 µM [cytotoxic, full curve]. In the case of `CC1CCN(C(=O)CSc2c3c(nc4ccc(Cl)cc24)CCCC3)CC1`, the Potency is reported as inconclusive: 15.8 µM [cytotoxic, single point]. With `O=C(Nc1ccc2c(c1)OCCO2)NC1CCCCC1` the Potency was active: 10 µM. In the case of `Cc1ccccc1CN1CCc2nc(N3CCN(c4ncccn4)CC3)ncc2C1`, the Potency is reported as inconclusive: 15.8 µM [cytotoxic, single point]. With `CCOc1ccccc1C(=O)Oc1c(S(=O)(=O)c2ccc(C)cc2)c(C)nn1-c1ccccc1` the “activity change, negative = cell killing” value was inactive: -21.5%. For `CCc1cccc(NC(=O)Cn2c(=O)n(-c3ccccc3C)c(=O)c3c2c2cc(C)ccc2n3C)c1`, the Potency was inconclusive: 0.0316 µM [cytotoxic, full curve, poor fit]. With `COc1ccc(S(=O)(=O)NCc2cccn2Cc2cccc(C)c2)cc1Cl` the Potency was inconclusive: 31.6 µM [cytotoxic, single point]. In the case of `COc1cccc(C(=O)Nc2ccc(NC(=O)C3CC3)cn2)c1`, the Potency is reported as inconclusive: 12.6 µM [cytotoxic, partial curve]. For `COc1ccc(-c2nc(SCC(=O)Nc3ccccc3)c(-c3ccc(F)cc3)[nH]2)cc1OC`, the Potency was inconclusive: 20 µM [cytotoxic, single point]. For `COc1cc(NC(=O)CSc2nc(-c3cccs3)cc(C(F)(F)F)n2)cc(OC)c1OC`, the “activity change, negative = cell killing” value was inactive: -8.12%. In the case of `CN(C)c1ccc(NC(=O)Nc2cccc(Cl)c2)cc1`, the Potency is reported as inconclusive: 12.6 µM [cytotoxic, single point]. For `CCOC(=O)c1ccccc1NC(=O)N1CCCN(S(=O)(=O)c2ccc3c(ccn3CC)c2)CC1`, the “activity change, negative = cell killing” value was inactive: -25.1%.
